# The list shows a part of the results.
# B1: Gal 8 (Mus musculus), Q9JL15 (protein)
# chain: MGGSHHHHHHGMASMLSLNNLQNIIYNPIIPYVGTITEQLKPGSLIVIRGHVPKDSERFQVDFQLGNSLKPRADVAFHFNPRFKRSSCIVCNTLTQEKWGWEEITYDMPFRKEKSFEIVFMVLKNKFQVAVNGRHVLLYAHRISPEQIDTVGIYGKVNIHSIGFRFSSASALPHTLGDLQSMETSALGLTQINRENIQKPGKLQLSLPFEARLNASMGPGRTVVIKGEVNTNARSFNVDLVAGKTRDIALHLNPRLNVKAFVRNSFLQDAWGEEERNITCFPFSSGMYFEMIIYCDVREFKVAINGVHSLEYKHRFKDLSSIDTLSVDGDIRLLDVRSW
# Legend:
# Test in all cases: glycan array binding signal (z-score within array); higher = stronger binding
# Conditions in all cases: glycan notation: IUPAC condensed, linker removed
# [1] = molecular target: GlcNAc(b1-3)GalNAc
# In short: (§1)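 Glycan array data were curated from 3228 arrays in the Consortium for Functional Glycomics database and kept only where the protein sequence was available. Glycan names were converted to IUPAC-condensed notation, and columns mapping to the same glycan were averaged. The binding signal is a within-array Z-score, averaged across arrays of the same protein sequence at different concentrations or buffers and across linkers. Negative Z-scores can be read as non-binding.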
# [2] = molecular target: GlcNAc(b1-3)Man
# In short: as §1
# [3] = molecular target: GlcNAc(b1-3)[GlcNAc(b1-4)][GlcNAc(b1-6)]GlcNAc
# In short: as §1
# [4] = molecular target: GlcNAc(b1-3)[GlcNAc(b1-6)]Gal(b1-4)GlcNAc
# In short: as §1
# [5] = molecular target: GlcNAc(b1-3)[GlcNAc(b1-6)]GalNAc
# In short: as §1
# [6] = molecular target: GlcNAc(b1-4)Gal(b1-4)GlcNAc
# In short: as §1
# [7] = molecular target: GlcNAc(b1-4)GlcNAc
# In short: as §1
# [8] = molecular target: GlcNAc(b1-4)GlcNAc(b1-4)GlcNAc
# In short: as §1
# [9] = molecular target: GlcNAc(b1-4)GlcNAc(b1-4)GlcNAc(b1-4)GlcNAc(b1-4)GlcNAc
# In short: as §1
# [10] = molecular target: GlcNAc(b1-4)GlcNAc(b1-4)GlcNAc(b1-4)GlcNAc(b1-4)GlcNAc(b1-4)GlcNAc
# In short: as §1
# [11] = molecular target: GlcNAc(b1-4)[GlcNAc(b1-6)]GalNAc
# In short: as §1
# [12] = molecular target: GlcNAc(b1-6)Gal(b1-4)GlcNAc
# In short: as §1
# [13] = molecular target: GlcNAc(b1-6)GalNAc
# In short: as §1
# [14] = molecular target: GlcNAc6S(b1-3)Gal(b1-4)GlcNAc
# In short: as §1
# [15] = molecular target: Kdn(a2-3)Gal(b1-3)GalNAc
# In short: as §1
# [16] = molecular target: Kdn(a2-3)Gal(b1-3)GlcNAc
# In short: as §1
# [17] = molecular target: Kdn(a2-3)Gal(b1-4)Glc
# In short: as §1
# [18] = molecular target: Kdn(a2-3)Gal(b1-4)GlcNAc
# In short: as §1
# [19] = molecular target: Kdn(a2-3)Gal(b1-4)[Fuc(a1-3)]GlcNAc
# In short: as §1
# [20] = molecular target: Kdn(a2-6)Gal(b1-4)GlcNAc
# In short: as §1
# [21] = molecular target: Man(a1-2)Man(a1-2)Man(a1-3)Man
# In short: as §1
# [22] = molecular target: Man(a1-2)Man(a1-2)Man(a1-6)[Man(a1-3)]Man
# In short: as §1
# [23] = molecular target: Man(a1-2)Man(a1-3)Man
# In short: as §1
# [24] = molecular target: Man(a1-2)Man(a1-3)[Man(a1-2)Man(a1-6)]Man
# In short: as §1
# [25] = molecular target: Man(a1-2)Man(a1-3)[Man(a1-2)Man(a1-6)]Man(a1-6)[Man(a1-2)Man(a1-2)Man(a1-3)]Man
# In short: as §1
# [26] = molecular target: Man(a1-2)Man(a1-3)[Man(a1-2)Man(a1-6)]Man(a1-6)[Man(a1-2)Man(a1-2)Man(a1-3)]Man(b1-4)GlcNAc(b1-4)GlcNAc
# In short: as §1
# [27] = molecular target: Man(a1-2)Man(a1-3)[Man(a1-6)]Man(a1-6)[Man(a1-2)Man(a1-3)]Man(b1-4)GlcNAc(b1-4)GlcNAc
# In short: as §1
# [28] = molecular target: Man(a1-2)Man(a1-6)[Man(a1-3)]Man(a1-6)[Man(a1-2)Man(a1-2)Man(a1-3)]Man
# In short: as §1
# [29] = molecular target: Man(a1-2)Man(a1-6)[Man(a1-3)]Man(a1-6)[Man(a1-2)Man(a1-2)Man(a1-3)]Man(b1-4)GlcNAc(b1-4)GlcNAc
# In short: as §1
# [30] = molecular target: Man(a1-3)[Man(a1-6)]Man
# In short: as §1
# [31] = molecular target: Man(a1-3)[Man(a1-6)]Man(a1-6)[Man(a1-2)Man(a1-3)]Man(b1-4)GlcNAc(b1-4)GlcNAc
# In short: as §1
# [32] = molecular target: Man(a1-3)[Man(a1-6)]Man(a1-6)[Man(a1-3)]Man
# In short: as §1
# [33] = molecular target: Man(a1-3)[Man(a1-6)]Man(a1-6)[Man(a1-3)]Man(b1-4)GlcNAc(b1-4)GlcNAc
# In short: as §1
# [34] = molecular target: Man(a1-3)[Man(a1-6)]Man(b1-4)GlcNAc(b1-4)GlcNAc
# In short: as §1
# [35] = molecular target: Man(a1-3)[Man(a1-6)]Man(b1-4)GlcNAc(b1-4)[Fuc(a1-6)]GlcNAc
# In short: as §1
# [36] = molecular target: Man(a1-6)Man
# In short: as §1
# [37] = molecular target: Man(b1-4)GlcNAc
# In short: as §1
# [38] = molecular target: MurNAc(b1-4)GlcNAc
# In short: as §1
binder,measurement,setting,value
B1,glycan array binding signal (z-score),[1],-0.542
same,glycan array binding signal (z-score),[2],-0.534
same,glycan array binding signal (z-score),[3],-0.544
same,glycan array binding signal (z-score),[4],-0.541
same,glycan array binding signal (z-score),[5],-0.538
same,glycan array binding signal (z-score),[6],-0.549
same,glycan array binding signal (z-score),[7],-0.541
same,glycan array binding signal (z-score),[8],-0.549
same,glycan array binding signal (z-score),[9],-0.54
same,glycan array binding signal (z-score),[10],-0.54
same,glycan array binding signal (z-score),[11],-0.544
same,glycan array binding signal (z-score),[12],-0.533
same,glycan array binding signal (z-score),[13],-0.537
same,glycan array binding signal (z-score),[14],-0.106
same,glycan array binding signal (z-score),[15],-0.209
same,glycan array binding signal (z-score),[16],-0.098
same,glycan array binding signal (z-score),[17],-0.377
same,glycan array binding signal (z-score),[18],-0.52
same,glycan array binding signal (z-score),[19],-0.46
same,glycan array binding signal (z-score),[20],-0.534
same,glycan array binding signal (z-score),[21],-0.547
same,glycan array binding signal (z-score),[22],-0.539
same,glycan array binding signal (z-score),[23],-0.547
same,glycan array binding signal (z-score),[24],-0.55
same,glycan array binding signal (z-score),[25],-0.543
same,glycan array binding signal (z-score),[26],-0.437
same,glycan array binding signal (z-score),[27],-0.546
same,glycan array binding signal (z-score),[28],-0.533
same,glycan array binding signal (z-score),[29],-0.538
same,glycan array binding signal (z-score),[30],-0.535
same,glycan array binding signal (z-score),[31],-0.468
same,glycan array binding signal (z-score),[32],-0.51
same,glycan array binding signal (z-score),[33],-0.525
same,glycan array binding signal (z-score),[34],-0.537
same,glycan array binding signal (z-score),[35],-0.545
same,glycan array binding signal (z-score),[36],-0.51
same,glycan array binding signal (z-score),[37],-0.526
same,glycan array binding signal (z-score),[38],-0.542

# Source: the supplement of paper PMC8728848
